Measurements taken from PubChem BioAssay AID493208 (National Center for Advancing Translational Sciences (NCATS), 2011).
The whole screen tested about 44,000 compounds, of which about 340 (0.77%) were called active. Inconclusive results (about 5%) are left out. Calls come from the whole dose curve; as a rule, active = well fitted inhibition curve with a large enough effect; inconclusive = small, poorly fitted or top-dose-only effect; inactive = flat fitted curve, though single readings scatter. The list shows a part of the results.

assay: Acumen qHTS Assay for Inhibitors of the mTORC1 Signaling Pathway in MEF (Tsc2-/-, p53-/-) Cells: Sytravon; conditions: phospho-rpS6 immunofluorescence/PI, 24 h; series mostly up to 38.3 µM; activity change, negative = inhibition: at the top concentration; note: nearly all actives have a fitted effect of over 50% in size;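 for activity change, negative = inhibition: plate controls were DMSO for no effect and rapamycin for full effect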
Summary of the method: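 Tsc2-/-, p53-/- mouse embryonic fibroblasts (empty-vector line) exposed to compound 24 hrs at 37 C, fixed, immunostained for phospho-rpS6 and counterstained with propidium iodide. Acumen laser scanning gives % positive cells from Alexa 488/PI ratio, thresholded using 7.5 nM rapamycin; PI count gives viability.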
Potency is the fitted concentration of half-maximal effect.

Activity change, negative = inhibition, inactive:
CCCCNC(=O)Cn1c(=O)cc(C)c2c(C)nn(-c3cccc(Cl)c3C)c21 -2.96%
CCc1ccc(-n2c(=O)c3c(C)c(C(=O)N(C)C)sc3n(CC(=O)Nc3cc(Cl)ccc3C)c2=O)cc1 -5.57%
CCOC(=O)c1c(C)c(C(=O)NCc2ccc(Cl)cc2)c(C)n1C -0.852%
CCc1c(C)sc2c1CCN(C(=O)Nc1ccccc1Cl)C2c1ccc(OC)cc1 (stereo unspecified) -1.34%
Cc1ccc(-c2noc(-c3ccc(NC4CCCC4)c([N+](=O)[O-])c3)n2)cc1 6.56%
Cc1cc(-n2c(SCc3ccccc3F)nc3[nH]ncc3c2=O)ccc1Cl 0.754%
CC(C)(C)OC(=O)N1CCC(c2nnc(SCc3ccccc3Cl)o2)CC1 -6.38%
CS(=O)(=O)c1ncc(N(Cc2ccco2)Cc2cccs2)c(C(=O)Nc2ccccc2F)n1 -1.65%
COc1ccc(Cl)cc1NC(=O)C(C)n1c(=O)cc(C(F)(F)F)c2c(C)nn(C)c21 (stereo unspecified) -8.73%
Cc1ccc(Cn2ccn(Cc3ccc(C)cc3)c(=O)c2=O)cc1 0%
CC1CCc2onc(C(=O)N3CCN(c4ccc(Cl)cc4)CC3)c2C1 (stereo unspecified) -2.89%
CCOc1ccc(CNC(=O)CCCn2nc(C)c3c(C)n(-c4ccc(C)cc4)nc3c2=O)cc1 -2.08%
COc1ccc(N2C(=O)NC(NS(=O)(=O)c3ccc(NC(C)=O)cc3)(C(F)(F)F)C2=O)cc1 (stereo unspecified) -2.92%
CCc1ccc(NC(=O)Cn2cnc3nc4c(cc3c2=O)CCCC4)cc1 -1.42%
Cc1ccc(C(=O)N2CC(=O)Nc3ccc(Br)cc3C2c2ccc(F)cc2)cc1C (stereo unspecified) 1.72%
COc1ccc(CNC(=O)Cc2c(C)c3c(O)cc(C)cc3oc2=O)cc1 -6.13%
Cc1ccc(C)c(N2CCN(C(=O)CCc3c(C)nc4c(c3C)c(=O)n(C)c(=O)n4C)CC2)c1 -4.29%
CCN1CCN(C(=O)Cn2c(-c3cccs3)cc3cc(Cl)ccc32)CC1 -9.24%
COc1ccccc1CNC(=O)C1CCN(c2ncnc3c2nc2n3CCCCC2)CC1 -8.73%
CC(C)CCNC(=O)c1c[nH]c2ccc(S(=O)(=O)Nc3cccc(C(F)(F)F)c3)cc2c1=O -0.233%
CCc1ccc(-n2c3nc(=O)[nH]c(=O)c-3cc3c(C)nn(-c4ccccc4)c32)cc1 -5.79%
COc1ccc(C(CNC(=O)c2oc3ccccc3c2C)N2CCCCC2)cc1 (stereo unspecified) -0.166%
COc1cc(Cl)c(C)cc1NC(=O)c1c(C)oc2nc(C)nc(N3CCCC3)c12 -3.92%
Cc1noc(-c2ccc(N3CCCCC3C)c([N+](=O)[O-])c2)n1 (stereo unspecified) 3.92%
CCc1nnc(NC(=O)CSc2nccn2Cc2ccccc2)s1 -15.5%
O=C1CCCc2cc(S(=O)(=O)N3CCCC(C(=O)NCc4ccccc4Cl)C3)ccc2N1 (stereo unspecified) 6.95%
Cc1ccc(-c2noc(-c3nnn(CC(=O)Nc4ccc(C)cc4Cl)c3N)n2)cc1 -13.9%
Cc1ccc(-n2c(=O)c3oc4ccccc4c3n(Cc3ccccc3)c2=O)cc1C 2.54%
CCC(=O)N1CCc2cc(CNS(=O)(=O)c3ccccc3F)ccc21 -7.98%
Cc1cc(C)cc(NS(=O)(=O)c2ccc3[nH]cc(C(=O)N4CCCCC4)c(=O)c3c2)c1 7.17%
COc1cccc(CNC(=O)C(Cc2ccccc2)NS(=O)(=O)c2ccc3c(c2)CCN3C(C)=O)c1 (stereo unspecified) -0.717%
CCOc1ccccc1CNC(=O)c1ccc2c(c1)N(CC)CCS2 -0.884%
Cc1ccc(NC(=O)CCc2nc(-c3ccccc3F)no2)c(C)c1 3.05%
CCOc1cc2c(cc1OCC)C(CC(=O)OC)N(C(=O)Nc1cc(C)cc(C)c1)CC2 (stereo unspecified) 11.1%
Cc1cccc(OCC(=O)Nc2nnc(S(=O)(=O)N3CCCCCC3)s2)c1 -12.3%
Cc1ccc(-n2nc(C(=O)NC(C)C)c(=O)n(C)c2=O)cc1 -9.34%
Cc1oc(-c2ccccc2Cl)nc1CS(=O)CC(=O)N1CCN(c2cccc(C(F)(F)F)c2)CC1 (stereo unspecified) -16.7%
Cc1nc2sccn2c(=O)c1S(=O)(=O)Nc1ccc(N2CCN(C)CC2)cc1 2.77%
COc1cc(OC)c(NC(=O)NCCn2nnc3cc(S(=O)(=O)N(C)C)ccc32)cc1Cl 0%
COc1ccc(-c2nn3c(=O)cc(CN4CCN(C(=O)Nc5cc(C)ccc5C)CC4)nc3s2)cc1 0%
CCCCSCCCNC(=O)C1CCN(Cc2nc(-c3ccc(CC)cc3)oc2C)CC1 -1.39%
Cc1cccc(N2CCN(C(=O)c3sc4nc5n(c(=O)c4c3C)CCC5)CC2C)c1 (stereo unspecified) -1.69%
CCOc1ccc(CCNC(=O)C(CC)n2nc(C)c3c(C)n(-c4ccccc4)nc3c2=O)cc1 (stereo unspecified) -13.1%
COc1ccc(-c2c(C#N)c(SCC(=O)Nc3ccc(C)c(C)c3)nc(C)c2C(=O)Nc2ccc(Cl)cc2)cc1 7.49%
CCOC(=O)c1c(C)[nH]c(C)c1S(=O)(=O)N1CCC(C(=O)NCc2ccc(F)cc2)CC1 0%
O=C(CSc1nnc(-c2ccccc2Br)n1-c1ccccc1)c1ccc(F)cc1 2.07%
Cc1nc2ccn(Cc3cccnc3)c(=O)c2cc1C(=O)NCc1ccccc1 -0.18%
O=C(NC1CCCC1)c1ccc(CSc2nc3cccnc3n2Cc2cccc(F)c2)cc1 -10.2%
CC(C)(C)C1CCc2nc(NC(=O)c3cccc(Cl)c3)sc2C1 (stereo unspecified) 2.54%
O=c1[nH]c(SCc2ccccc2)nc2c1CCCC2 -30.1%
COc1ccc(NC(=O)C2=C(C)Nc3ncnn3C2c2sccc2C)cc1 (stereo unspecified) 3.93%
COc1cc(OC)c(NC(=O)Cc2c(C(=O)O)c(C)cn2C)cc1Cl -0.0216%
Cc1ccc2oc(=O)n(CCNC(=O)Nc3ccccc3C)c2c1 -3.56%
CCc1ccc(OCC(=O)Nc2ccc(S(=O)(=O)Nc3onc(C)c3C)cc2)cc1 -3.3%
COc1ccc(OC2CCN(S(=O)(=O)c3cccc(F)c3)CC2)cc1 -11.5%
Cc1ccc(CNC(=O)Cc2c(C(=O)O)c(C)cn2C)cc1 -2.23%
CCOc1ccc(CN2C(=O)c3ccccc3Sc3ccc(C(=O)NCc4ccc5c(c4)OCO5)cc32)cc1 -10.6%
Cc1ccccc1NC(=O)Nc1csc2c1CCCC2 -4.6%
COc1ccc(C(=O)CSc2nc3cc(C(=O)NC4CCCC4)ccc3c(=O)n2CC2CCCO2)cc1 (stereo unspecified) -4.5%
Cc1cccc(C(=O)N2CCNC(=O)C2CC(=O)Nc2ccc(F)cc2)c1 (stereo unspecified) -5.29%
COC(=O)c1cc2oc3ccccc3c2n1CC(=O)Nc1cccc(SC)c1 -2.08%
Cc1cccc(NC(=O)Cn2c(=O)n(CCc3ccccc3)c(=O)c3ccccc32)c1 -18.6%
COc1ccc(C2C(C(=O)Nc3ccccc3)=C(C)Nc3nc(-c4ccccc4)nn32)c(OC)c1 (stereo unspecified) -1.91%
CCCc1cnc2c(c1SCc1cccc(C)c1)c(=O)n(C)c(=O)n2C 3.15%
CCCOc1cccc(C(=O)Nc2cc(-c3nc4ccccc4[nH]3)ccc2C)c1 -3.84%
COc1cc(OC)c(NC(=O)c2sc3nc4n(c(=O)c3c2C)CCCC4)cc1Cl 7.79%
COc1ccc(S(=O)(=O)NCCc2sc(C)nc2C)cc1 -16.3%
O=C(CC1C(=O)OCCN1Cc1ccccc1)Nc1cccc(Cl)c1 (stereo unspecified) 4.31%
Cc1ccc(CCNC(=O)CN2C(=O)COc3ccc(S(=O)(=O)N4CCCC4)cc32)cc1 4.41%
COc1ccc(-n2c(-c3ccccc3F)nc3c(cnn3-c3ccc(C)cc3)c2=O)cc1 -1.8%
CCOc1cc(Cn2c(-c3ccc(O)c(OCC)c3)nc3ccccc32)ccc1O -9.89%
CCCCC(=O)N1CC(=O)Nc2ccc(F)cc2C1c1ccc(F)cc1 (stereo unspecified) 2.13%
CCn1c(CNC(=O)C23CC4CC(CC(C4)C2)C3)nnc1SCC(=O)Nc1ccc(C)cc1 -6.14%
CC(=O)c1ccc(NC(=O)c2sc(-n3nc(C)c(CCC(C)C)c3C)nc2C)cc1 -6.89%
Cc1ccc(S(=O)Cc2ccc(C(=O)NCc3ccc(OC(C)C)cc3)o2)cc1 (stereo unspecified) -6.03%
Cc1nc2c3cccnc3nn2c(C)c1CCC(=O)NCc1ccccc1Cl -11.6%
Cc1ccc2c(Sc3ccccc3)c(C(=O)NCc3ccccc3F)[nH]c2c1 -0.663%
CCOc1ccccc1NC(=O)CSc1nc2ccccc2nc1Cc1ccc(C)cc1 10.4%
CCN(CC)S(=O)(=O)c1nnc(NC(=O)COc2ccc(C)cc2)s1 -2.7%
CC(=O)Nc1ccccc1-c1nc2ccccc2n(C(C)C(=O)Nc2cc(Cl)ccc2C)c1=O (stereo unspecified) 0%
Cc1ccc(C)c(NC(=O)CSc2nnc(CNC(=O)c3ccccc3)n2-c2ccccc2)c1 1.01%
CCOc1ccc(NC(=O)c2ccc(CN3C(=O)C(C)=C(c4ccc(C)cc4)S3(=O)=O)cc2)cc1 0%
CCC(=O)Nc1ccccc1-c1nc2ccccc2n(Cc2cccc(Br)c2)c1=O -12.7%
Cn1c(=O)c2sccc2n2c(CCCC(=O)Nc3ccc(Cl)cc3)nnc12 5%
COc1ccc(CN2CCCN(CC(=O)Nc3cc(C)ccc3C)S2(=O)=O)cc1 2%
CCOC(=O)c1sc(N2C(=O)c3oc4cc(C)c(C)cc4c(=O)c3C2c2ccc(C)cc2)nc1C (stereo unspecified) -1.07%
O=C(Nc1ccccc1Cl)c1ccc(F)c(S(=O)(=O)NCc2ccc(Cl)c(Cl)c2)c1 4.7%
CCOC(=O)c1c(C)oc2nc(C)nc(Nc3cc(C)cc(C)c3)c12 -0.758%
CCc1ccc2oc(C(=O)NCC(c3ccc(Cl)cc3)N3CCOCC3)c(C)c2c1 (stereo unspecified) -5.57%
CC(=O)N1CCCc2cc(S(=O)(=O)N(CCN(C)C)Cc3ccccc3)ccc21 -8.04%
Cc1ccc(-n2ncc3c(N4CCCCC4)ncnc32)cc1Cl 9.94%
COc1ccc(-c2cc(OC(=O)c3ccccc3C)c3c(C)oc(C)c3c(=O)c2)cc1 -1.54%
CCc1cccc(C)c1NC(=O)c1cc(S(=O)(=O)N(C)Cc2ccccc2)ccc1F 7.05%
O=C(CSc1nc2ccccc2n1Cc1ccc(F)cc1)N1CCN(c2ccc(F)cc2)CC1 2.49%
Cc1csc2nc(COC(=O)c3ccc(F)cc3)cc(=O)n12 -3.46%

Potency, active:
CS(=O)(=O)c1ncc(Cl)c(C(=O)N(Cc2ccc(Cl)cc2)Cc2ccco2)n1 1850 nM
